This note sets out measurements from PubChem BioAssay (NCI).

This test has as its system NCI-H322M lung. Briefly: NCI-60 cell line screen, 48 h.

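Following 48 hours of exposure in 96-well plates, responses at five concentrations were used to interpolate endpoints linearly. Abbreviation: GI50, concentration required for 50% inhibition of growth. TGI marks complete inhibition of growth.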

For `O=c1c2cc(-c3ccc(F)cc3F)ccc2n(Nc2ccccc2)c(=O)n1-c1cccc(C(F)(F)F)c1`, the GI50 was 2.16 µM and the TGI came out at 8.62 µM.

As for `Cc1nc(-c2cc3ccccc3oc2=O)ccc1C(=O)/C=C/c1ccccn1`, the GI50 is above 100 µM and the TGI is above 100 µM.

`O=C(NCCN1CCCC1)c1ccc(-c2nc3ccc4[nH]ncc4c3c3c2CCCC3)cc1`: the GI50 was 0.959 µM and the TGI came out at 4.09 µM.
